Hit rate of the full screen: of about 110,000 compounds, about 230 (0.21%) showed an effect of 50% or more. The list shows a part of the results.
target: DPAP1 (Plasmodium falciparum, UniProt Q8IIJ9); assay: primary screen, percent inhibition; read by cleavage of a fluorogenic dipeptide substrate; higher = more effect of the substance; set-up: species or system P. falciparum D10 trophozoite lysates; single well
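Also: 30 min substrate incubation versus DMSO and 10 µM JCP410 controls.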

Chain of DPAP1 (Q8IIJ9 whole entry, looked up): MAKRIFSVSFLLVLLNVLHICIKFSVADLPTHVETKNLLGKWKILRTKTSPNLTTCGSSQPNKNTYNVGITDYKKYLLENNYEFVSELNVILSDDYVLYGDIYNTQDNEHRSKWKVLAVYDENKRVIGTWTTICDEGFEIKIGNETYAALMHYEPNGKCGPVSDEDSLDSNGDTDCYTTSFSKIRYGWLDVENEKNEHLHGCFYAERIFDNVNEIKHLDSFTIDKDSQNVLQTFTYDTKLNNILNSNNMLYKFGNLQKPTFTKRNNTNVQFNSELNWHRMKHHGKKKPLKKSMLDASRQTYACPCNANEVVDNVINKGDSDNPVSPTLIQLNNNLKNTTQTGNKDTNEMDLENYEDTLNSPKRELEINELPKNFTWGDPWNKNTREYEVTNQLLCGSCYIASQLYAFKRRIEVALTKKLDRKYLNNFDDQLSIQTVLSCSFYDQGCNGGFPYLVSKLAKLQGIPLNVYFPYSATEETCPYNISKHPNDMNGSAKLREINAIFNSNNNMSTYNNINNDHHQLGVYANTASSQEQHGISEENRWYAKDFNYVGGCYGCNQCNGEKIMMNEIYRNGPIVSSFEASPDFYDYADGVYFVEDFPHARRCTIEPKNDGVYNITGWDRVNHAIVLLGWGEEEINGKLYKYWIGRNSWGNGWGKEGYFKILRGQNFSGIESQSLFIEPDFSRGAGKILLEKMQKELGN

Compound | % Inhibition @ 10 uM [%]
CC1(C)CC2=Nc3ccccc3NC(c3cccs3)C2=C(O)C1 (centres unmarked) | 6.83
Cc1c2c(cc3c1oc(=O)c1ccccc13)CN(Cc1ccccc1)CO2 | -2.57
O=C1C(Cl)=C(N2CCNCC2)C(=O)c2ccccc21 | 7.68
CN1CC=C2C(C#N)=C(N)C(C#N)(C#N)C(c3cccc4ccccc34)C2C1 (centres unmarked) | -3.48
COc1ccc(OC)c(C2NC(=O)NC(C)=C2C(=O)OCC(F)(F)F)c1 (centres unmarked) | 1.13
CCCN1CCC(NCCOC)CC1 | -2.18
N#CCNC(=O)[C@H](Cc1ccc2ccccc2c1)NC(=O)OCc1ccccc1 | 0.744
CC1=NN(c2ccccc2)C(=O)/C1=C\c1cccnc1 | 11
CCSc1nc(-c2cccs2)cc(C(F)(F)F)c1C#N | 82.6
COc1ccc(CC(=O)Nc2cccc(N)c2)cc1OC | -4.86
CCC(C)NC(=O)Cn1nc(C)n2c(cc3cc(C)ccc32)c1=O (centres unmarked) | 3.29
CCC(=O)N1N=C(c2cccs2)CC1c1ccco1 (centres unmarked) | -6.07
COc1ccccc1C(=O)Nc1sc2c(c1C#N)CC(C)(C)NC2(C)C | -3.4
CCCC[C@H](NC(=O)[C@H](Cc1ccc2ccccc2c1)NC(=O)c1ccc(CN)cc1)C(=O)COCc1ccccc1 | -0.778
CC(=O)N(C)c1ccc(NC(=O)COc2cc(C)ccc2C)cc1 | 1.07
c1csc(-c2nc3cc4ccccc4cc3[nH]2)c1 | -2.48
O=C(NCCC1=CCCCC1)C1CCN(S(=O)(=O)c2cccc3cccnc23)CC1 | 3.53
CCCCNC(=O)Cn1nc(C)c2c(C)n(-c3ccccc3)nc2c1=O | 3.66
COc1cccc(C(=O)Nc2ccc(NC(=O)c3ccccc3)cc2)c1 | -1.91
Cc1ccccc1C(=O)n1nc(-c2ccco2)nc1NCc1ccccc1 | 1.9
CC(C)(O)C#Cc1ccc(C(=O)N2CCN(c3cccc(Cl)c3)CC2)cc1 | -3.85
CC(=O)C1=C(C)N=C(S)NC1c1ccccc1F (centres unmarked) | -4.8

Compound | % Inhibition @ 10 uM [%]
COc1ccc([C@@H]2[C@H]3CCCC[C@]3(O)CCN2C(C)=O)c(OC)c1OC | -5.96
CCc1nc2ccc(C(=O)NCCc3ccc(Cl)cc3)cc2nc1CC | -6.82
CC(C)CN(CC(C)C)c1ncnc2ccccc12 | 1.15
CC(C)Oc1ccc(C2N3CCCN23)cc1 (centres unmarked) | -2.88
Cc1cc(-n2nc(C)cc2C)nc(-c2ccccc2)n1 | 0.215
CC1(C)OC(C(=O)NC2CCCCC2)C(C(=O)NC2CCCCC2)O1 (centres unmarked) | 13
CC(C)C[C@H](/N=C(\NCC(F)(F)F)c1ccccc1)C(=O)NCC#N | -1.82
COc1cccc(CN2CCN(Cc3cccnc3)CC2)c1OC | -4.59
COc1ccc(Br)cc1CN(CCN(C)C)Cc1ccccc1 | -1.5
CC(C)(C)c1cc(N2CCCCC2)ncn1 | 3.24
Cc1cc(O)nc(SCC(=O)Nc2cccc(Cl)c2C)n1 | 0.673
Cc1cc(C)c(C#N)c(SCC(=O)Nc2ccccc2Br)n1 | 2.36
COc1cccc(CN2CCN(c3ccc([N+](=O)[O-])cc3)CC2)c1 | -0.261
CCNc1nc(N2CCOCC2)nc(N(c2ccccc2)c2ccccc2)n1 | 1.29
COc1ccc(OC)c(NC2=NS(=O)(=O)c3ccccc32)c1 | 8.76
CC(=O)Nc1ccc(NC(=O)Cc2ccccc2)cc1 | -5.61
Cc1nc2c(sc3nc(C)c(C)c(C)c32)c(=O)o1 | -3.63
Cn1c(=O)c2c(ncn2CC(=O)N2CCN(Cc3ccc4c(c3)OCO4)CC2)n(C)c1=O | 1.84
COC(=O)c1c(NC(=O)Cc2coc3c(C)c(C)ccc23)sc2c1CCCC2 | -0.671
COC(=O)c1ccc2c(c1)C(=O)/C(=C/C=C/c1ccccc1)O2 | 0.291
O=C(Nc1c2c(nc3c1CCC3)CCCC2)c1ccccn1 | -5.07
N/C(=N\c1ccc2c(c1)OCCO2)Nc1nc(O)c2c(n1)CCC2 | 3.67

Compound | % Inhibition @ 10 uM [%]
Cc1ccccc1CSc1nc2c(c(=O)n(C)c(=O)n2C)n1C | -3.63
CC(C)(C)c1ccc(-c2noc(CCC(=O)N3CCOCC3)n2)cc1 | 1.25
COc1ccccc1NC(=O)c1ccccc1NC(=O)c1ccccc1O | 7.35
COc1ccc(C(O)(CCN2CCOCC2)c2ccccc2)cc1 (centres unmarked) | 0.558
Fc1ccc2[nH]c3nc(S)nnc3c2c1 | 56
CC(NC(=O)Cn1ncc2c(Cl)cccc21)c1ccc2c(c1)OCCO2 (centres unmarked) | 0.596
COc1ccc(S(=O)(=O)Cc2ccc(C(=O)N3CCN(c4ccccn4)CC3)o2)cc1 | -1.28
O=C(CCn1cnc2onc(-c3ccc(F)cc3)c2c1=O)N1CCC(Cc2ccccc2)CC1 | 3.1
C=CCNC(=O)c1cc(-c2cccc(C)c2)nc2ccccc12 | -7.08
CCN1CCN(C(=O)c2ccccc2C(=O)O)CC1 | -2.67
O=C1C(=O)N(C2CCCCC2)C(=O)N1c1ccc2ccccc2c1 | -4.61
Cc1ccc(C(=O)Nc2ccc([N+](=O)[O-])cc2)cc1 | -0.351
COc1ccc(/N=c2\oc(C)cc(O)c2C(C)=O)c(OC)c1 | 2.36
Cc1cc(-c2cccnc2)c2c(N)c(C(=O)C34CC5CC(CC(C5)C3)C4)sc2n1 | 2.38
COCCNC(=O)C1CC(=O)N(Cc2ccc(OC)cc2)C1 (centres unmarked) | 1.62
Cc1cc(C2C(C#N)=C(N)N(c3cccnc3)C3=C2C(=O)CC(c2ccccc2)C3)c(C)s1 (centres unmarked) | -4.93
CC(C)CC(C(=O)O)N1C(=O)c2ccc(C(=O)O)cc2C1=O (centres unmarked) | -2.6
CSc1ncc(C(=O)NC(C)c2ccccc2)c(C(F)(F)F)n1 (centres unmarked) | -3.72
O=C(NCc1cccnc1)C1c2ccccc2C(=O)N1Cc1ccco1 (centres unmarked) | 4.63
COc1ccc(/C=C2/C(=O)N(c3ccccc3)N=C2C)cc1 | -2.59
CC(C)(C)C(=O)/N=C1/SC2CS(=O)(=O)CC2N1Cc1ccccc1 (centres unmarked) | -2.92

Source: PMC6919601, “Identification of Plasmodium dipeptidyl aminopeptidase allosteric inhibitors by high throughput screening” (PLoS ONE, 2019)
